# Variants at the floor of the assay are shown more often than the library holds them.
# B1: tRNA (parent)
# chain: CUCUCGGUAGCCAAGUUGGUUUAAGGCGCAAGACUUUAAUUUAUCACUACGAAAUCUUGAGAUCGGGCGUUCGACUCGCCCCCGGGAGAUUUUUUCCUCGAGCAA
# Variants of: B1
# Assay: nonsense suppression (GFP-seq) (ratio to wild type); higher = more function; SUP4oc tRNA, yeast GFP reporter sort-seq
# Outline: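 Yeast were grown in raffinose/galactose medium with 80 mg/L adenine, each strain bearing a genome-integrated ochre-suppressor tRNA variant from a ~3% random-mutation library, a galactose-driven GFP ochre reporter, and RFP. After sorting into GFP/RFP bins, every bin was sequenced on an Illumina platform at phred ≥30. The GFPSEQ value, a measure of nonsense suppression, is the weighted bin median GFP/RFP relative to the unmutated parent tRNA, using each variant's estimated cell share per bin as the weight. Only variants with ≥100 reads and ≥30 cells were included.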
row,Variant,nonsense suppression
1,U17C G19C U35G C64U G88A,≤ 0.026
2,U17C G32U G84U,≤ 0.026
3,U16A G19C U70G C72G,≤ 0.026
4,U17A C27A C77U A87G G88C,≤ 0.026
5,G15U U70A G85U,≤ 0.026
6,U16C A24C A31C G32U G67A C79G,≤ 0.026
7,U17G A54G U57C,≤ 0.026
8,U17C U35A U58G G78U,≤ 0.026
9,U16A A23G C82U,≤ 0.026
10,U16C G67U,≤ 0.026
11,U16G G25C U55A,≤ 0.026
12,U17A A74U C79G,≤ 0.026
13,U16G U70A C82A,≤ 0.026
14,U16G G32C C75A,≤ 0.026
15,U16C A62C C72U,≤ 0.026
16,U17A C34A C80G,≤ 0.026
17,U16C A23U C79U,≤ 0.026
18,U16A U55G G69C,≤ 0.026
19,U17A G85U G88U,≤ 0.026
20,U16G A23U C29U U55C G61A,≤ 0.026
21,U16C U70A,≤ 0.026
22,U16C U70C,≤ 0.026
23,U16C U63C C79U,0.0784
24,U16G U57A A74G C79A,≤ 0.026

row,Variant,nonsense suppression
1,U17A C27U U58G G61C C75A G78C,≤ 0.026
2,U17A A24U A60C,≤ 0.026
3,U17A G25C,0.068
4,U16A A54G C77U,≤ 0.026
5,U17C A74G C79U,≤ 0.026
6,U17G A54U G61C,0.162
7,U16A G65A G66A,≤ 0.026
8,U17A G26U A74C,≤ 0.026
9,U16G U55G G88C,≤ 0.026
10,U16C G59C,≤ 0.026
11,U16C G59U,≤ 0.026
12,U16A G28U G67C G85U,≤ 0.026
13,U17A C29U U76G G78C,≤ 0.026
14,U16A C34G G67U G73A C81U,≤ 0.026
15,U16G C34A G67U A89U,≤ 0.026
16,U17A A23C U71C,≤ 0.026
17,U17C G28A G61C,0.716
18,U17C U63C,1.18
19,U17G A30U,0.0613
20,U17C G18A A89C,≤ 0.026
21,U17A U70G,≤ 0.026
22,U16C U22C G61C,0.207
23,U16C A54C,1.22
24,U16G U17A G66C C75A,≤ 0.026

row,Variant,nonsense suppression
1,U16G G25A U35G U55G G65A,≤ 0.026
2,U16C U55C G78C G88A,≤ 0.026
3,U16G G28U,≤ 0.026
4,G15U U63G G67A U70C,≤ 0.026
5,U17A G18U A23U G78A,≤ 0.026
6,U17A G84C,≤ 0.026
7,U17A A74C G84C,≤ 0.026
8,U17A A31G C72G U76A G78U,≤ 0.026
9,U17C G26U G85U,≤ 0.026
10,U17C C64G G69U,≤ 0.026
11,U17C C29G C34A G61A G65A,≤ 0.026
12,U17C A33G,0.0608
13,U16C U20C A23U C29U A31G,≤ 0.026
14,U17C C34A G67C G86U,≤ 0.026
15,U16C G19U U21G U22A U55C G85A,≤ 0.026
16,U16A C82G,≤ 0.026
17,U16A C82U,0.886
18,U17A G61C,0.665
19,U16G U57G U58C G66U C77A,≤ 0.026
20,U17C G61A C83G,≤ 0.026
21,U17C G86U,≤ 0.026
22,U16C A31C G67A,≤ 0.026
23,U17C A60C,0.196
24,U17C U55G,≤ 0.026

row,Variant,nonsense suppression
1,U17A C64U C72U,≤ 0.026
2,U16G U20A C27A,≤ 0.026
3,U16A C27G,≤ 0.026
4,U17C A62C,0.734
5,U17G A87G,0.752
6,U17C G25C G65C,≤ 0.026
7,U16C G18U G28C G73U,≤ 0.026
8,U17A U58G G59C U71C,≤ 0.026
9,U16C C82A G85A,≤ 0.026
10,U16C G18C,≤ 0.026
11,U17A G85C,≤ 0.026
12,U16A G32U G73A,≤ 0.026
13,U17C G28A C64U G86U,≤ 0.026
14,U17A G19A U63C C72G G88A,≤ 0.026
15,U16A G26U C81U,≤ 0.026
16,U16G A23G G69U,≤ 0.026
17,U16G C83U,0.223
18,U17C C29A G65A C72U C77U,≤ 0.026
19,U16G U55C C77G C82U,≤ 0.026
20,U16C G25C U57A G84A,≤ 0.026
21,U16C A33G,≤ 0.026
22,U17A A62U U76G,≤ 0.026
23,U17C G26A U71C,≤ 0.026
24,U17A U21C G66A,≤ 0.026

row,Variant,nonsense suppression
1,U17G A31C U71C,≤ 0.026
2,U16G C82A,≤ 0.026
3,U16C A31G C34G C79A,≤ 0.026
4,U17A C34A G59A,≤ 0.026
5,U16A G26C C72U G88U,≤ 0.026
6,U16A A31U U55G,≤ 0.026
7,U16A U76C,1.19
8,U16A A24C G88A,≤ 0.026
9,U17A G67U,≤ 0.026
10,U16G C34G G84A,≤ 0.026
11,U17A A60C,0.19
12,U16C U71C,≤ 0.026
13,U16G A23C G59C G88A,≤ 0.026
14,U16A G88C,≤ 0.026
15,U17A G65U G69A C75A,≤ 0.026
16,U16G U17A G19A C27A,≤ 0.026
17,U16G G67U,≤ 0.026
18,U16A A23G A31G,≤ 0.026
19,U17A U20G G32A G61A C80U,≤ 0.026
20,U17A G18C C64G G69A U70G,≤ 0.026
21,U17A G19U U22C G85U,≤ 0.026
22,U16A G32A G69A,≤ 0.026
23,U17C G84A,0.048
24,U16A G66U C83A,≤ 0.026

row,Variant,nonsense suppression
1,U17A G66A G85C,≤ 0.026
2,U17C A30G A31G,0.0827
3,U17C U58G G88U,≤ 0.026
4,U17A C56G A60U U76C,≤ 0.026
5,U16G U17C A33U G84U,≤ 0.026
6,U17C U20G,1.25
7,U17G A31U,≤ 0.026
8,U16A G25U A33C,≤ 0.026
9,U17C C27G U63C G69A U71A G73C,≤ 0.026
10,U16G G26A G61C,≤ 0.026
11,U16G U17C,1.05
12,U17A G26U G28C C83G,≤ 0.026
13,U16C G73C G86U,≤ 0.026
14,U16C U17G A30C G78C,≤ 0.026
15,U16A C68G C81G,≤ 0.026
16,U16G C34G,≤ 0.026
17,U17C U55G G67C,≤ 0.026
18,U17C U58G,≤ 0.026
19,U17C A33G C64A G88A,≤ 0.026
20,U16A A23G G66C,≤ 0.026
21,U16A A60U C82A A87U,≤ 0.026
22,U17A C27U A31U G59A G67A U76G,≤ 0.026
23,U16A C34G G65C C75A,≤ 0.026
24,U17G A33U U63G C68A U71G,≤ 0.026

row,Variant,nonsense suppression
1,U17C G19A G78C,≤ 0.026
2,U16C U21C,1.03
3,U16G A30C A31G U55A U57A,≤ 0.026
4,U17A U71A,≤ 0.026
5,U16A G28C A30U A74G,≤ 0.026
6,U16G A24U,0.221
7,U17C G61C,0.769
8,U17A A24U G25U G32C G73A A89G,≤ 0.026
9,U16G C80G,≤ 0.026
10,U17A C79A,≤ 0.026
11,U17C A54G A74G,≤ 0.026
12,U17A G26U,≤ 0.026
13,U16C U55A C75A G88C,≤ 0.026
14,U17A U20C C83A,≤ 0.026
15,U16G A23G,0.129
16,U16C C34G C64G C79A,≤ 0.026
17,U16C G73U C79U,≤ 0.026
18,U17C C34G U70C,≤ 0.026
19,U17G A23G A30U U35A G61C G78C,≤ 0.026
20,U17C U20G A24G U55G,≤ 0.026
21,U16A U70G,≤ 0.026
22,U16C U58A G59U A62C,≤ 0.026
23,U17A C27G A54U,≤ 0.026

# From the RNAGym collection of RNA variant scans (doi:10.1101/gad.245936.114)
